According to publication PMC6760808:
No constants are given. Whether binding was seen depends on the method and setting. Some binding calls cover weakened binding; strength is not graded here. Sequences can lack the tags named with a protein.

Legend:
NPHP4-mCh-mito = biological target: T1, NPHP4-mCh-mito (UniProt O75161); experiment: knocksideways (recruitment to the mitochondrial surface, fluorescence microscopy); NPHP-mCh-mito bait on the mitochondrial surface co-expressed with EGFP-tagged nucleoporin in COS-7 cells; fixed 24 hours post-transfection
T1 sequence: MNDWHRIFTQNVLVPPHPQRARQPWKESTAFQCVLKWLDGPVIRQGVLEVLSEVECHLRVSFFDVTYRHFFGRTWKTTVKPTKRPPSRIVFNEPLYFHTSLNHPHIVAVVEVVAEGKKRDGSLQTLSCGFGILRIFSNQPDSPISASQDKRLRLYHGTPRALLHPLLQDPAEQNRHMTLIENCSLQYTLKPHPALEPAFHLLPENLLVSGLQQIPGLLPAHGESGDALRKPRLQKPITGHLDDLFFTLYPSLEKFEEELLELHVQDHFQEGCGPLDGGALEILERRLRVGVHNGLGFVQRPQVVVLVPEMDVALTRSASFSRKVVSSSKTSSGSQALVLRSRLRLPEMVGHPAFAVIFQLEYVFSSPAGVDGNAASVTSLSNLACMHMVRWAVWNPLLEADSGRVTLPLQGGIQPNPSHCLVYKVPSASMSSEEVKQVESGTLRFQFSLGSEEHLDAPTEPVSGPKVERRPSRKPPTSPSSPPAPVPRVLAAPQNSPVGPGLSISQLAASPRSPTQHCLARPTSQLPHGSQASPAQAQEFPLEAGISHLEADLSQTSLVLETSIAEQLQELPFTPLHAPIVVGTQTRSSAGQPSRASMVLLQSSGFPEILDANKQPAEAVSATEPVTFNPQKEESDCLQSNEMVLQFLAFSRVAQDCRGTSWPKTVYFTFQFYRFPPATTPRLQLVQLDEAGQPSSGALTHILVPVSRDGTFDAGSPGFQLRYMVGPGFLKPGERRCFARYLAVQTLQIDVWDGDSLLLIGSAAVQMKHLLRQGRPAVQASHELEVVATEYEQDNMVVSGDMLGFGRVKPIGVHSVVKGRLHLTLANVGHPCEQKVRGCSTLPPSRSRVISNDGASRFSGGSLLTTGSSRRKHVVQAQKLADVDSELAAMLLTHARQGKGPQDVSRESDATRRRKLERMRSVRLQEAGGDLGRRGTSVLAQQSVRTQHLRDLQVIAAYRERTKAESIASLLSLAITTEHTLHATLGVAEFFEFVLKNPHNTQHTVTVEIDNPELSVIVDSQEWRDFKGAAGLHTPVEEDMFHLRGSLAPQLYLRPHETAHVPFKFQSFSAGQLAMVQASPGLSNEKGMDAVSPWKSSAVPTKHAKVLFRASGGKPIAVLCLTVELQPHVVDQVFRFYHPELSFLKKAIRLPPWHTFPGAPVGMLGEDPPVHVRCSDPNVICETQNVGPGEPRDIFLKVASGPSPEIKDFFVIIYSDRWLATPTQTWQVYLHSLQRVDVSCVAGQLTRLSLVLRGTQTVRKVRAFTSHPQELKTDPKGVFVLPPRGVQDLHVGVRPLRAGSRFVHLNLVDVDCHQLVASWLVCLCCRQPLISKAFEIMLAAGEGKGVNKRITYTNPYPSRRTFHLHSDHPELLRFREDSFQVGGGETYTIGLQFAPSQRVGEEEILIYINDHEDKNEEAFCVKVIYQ

NPHP2-mCh-mito = biological target: T2, NPHP2-mCh-mito (UniProt Q9Y283); experiment: as above
T2 sequence: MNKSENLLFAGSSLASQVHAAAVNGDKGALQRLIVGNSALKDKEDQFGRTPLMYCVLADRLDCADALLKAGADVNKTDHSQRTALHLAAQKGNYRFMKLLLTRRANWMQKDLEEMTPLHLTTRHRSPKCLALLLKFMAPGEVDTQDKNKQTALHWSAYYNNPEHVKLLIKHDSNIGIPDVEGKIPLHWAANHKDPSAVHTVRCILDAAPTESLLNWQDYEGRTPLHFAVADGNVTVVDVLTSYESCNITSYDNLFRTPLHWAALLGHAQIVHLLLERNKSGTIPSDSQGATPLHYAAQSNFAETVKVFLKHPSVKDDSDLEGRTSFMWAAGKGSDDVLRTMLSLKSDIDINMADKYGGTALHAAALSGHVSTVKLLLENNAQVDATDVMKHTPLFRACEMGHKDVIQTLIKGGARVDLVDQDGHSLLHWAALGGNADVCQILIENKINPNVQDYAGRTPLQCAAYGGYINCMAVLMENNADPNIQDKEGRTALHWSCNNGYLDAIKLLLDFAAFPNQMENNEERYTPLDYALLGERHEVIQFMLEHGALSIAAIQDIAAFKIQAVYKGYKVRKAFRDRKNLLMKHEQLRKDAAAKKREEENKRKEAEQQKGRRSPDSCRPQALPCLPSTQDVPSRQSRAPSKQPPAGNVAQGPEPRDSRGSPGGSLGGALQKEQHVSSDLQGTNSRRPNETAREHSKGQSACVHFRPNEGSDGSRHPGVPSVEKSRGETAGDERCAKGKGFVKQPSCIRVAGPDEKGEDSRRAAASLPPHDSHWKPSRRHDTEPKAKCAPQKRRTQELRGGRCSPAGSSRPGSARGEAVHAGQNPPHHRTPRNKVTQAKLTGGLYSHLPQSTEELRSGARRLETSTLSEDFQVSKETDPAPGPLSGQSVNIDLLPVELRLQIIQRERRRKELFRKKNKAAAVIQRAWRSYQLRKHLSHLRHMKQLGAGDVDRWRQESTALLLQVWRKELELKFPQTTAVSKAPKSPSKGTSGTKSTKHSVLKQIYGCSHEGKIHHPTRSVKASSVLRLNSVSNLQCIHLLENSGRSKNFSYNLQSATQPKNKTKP

B1: Nup155-EGFP3 (protein, UniProt O75694 1-1391)
chain: MPSSLLGAAMPASTSAAALQEALENAGRLIDRQLQEDRMYPDLSELLMVSAPNNPTVSGMSDMDYPLQGPGLLSVPNLPEISSIRRVPLPPELVEQFGHMQCNCMMGVFPPISRAWLTIDSDIFMWNYEDGGDLAYFDGLSETILAVGLVKPKAGIFQPHVRHLLVLATPVDIVILGLSYANLQTGSGVLNDSLSGGMQLLPDPLYSLPTDNTYLLTITSTDNGRIFLAGKDGCLYEVAYQAEAGWFSQRCRKINHSKSSLSFLVPSLLQFTFSEDDPILQIAIDNSRNILYTRSEKGVIQVYDLGQDGQGMSRVASVSQNAIVSAAGNIARTIDRSVFKPIVQIAVIENSESLDCQLLAVTHAGVRLYFSTCPFRQPLARPNTLTLVHVRLPPGFSASSTVEKPSKVHRALYSKGILLMAASENEDNDILWCVNHDTFPFQKPMMETQMTAGVDGHSWALSAIDELKVDKIITPLNKDHIPITDSPVVVQQHMLPPKKFVLLSAQGSLMFHKLRPVDQLRHLLVSNVGGDGEEIERFFKLHQEDQACATCLILACSTAACDREVSAWATRAFFRYGGEAQMRFPTTLPPPSNVGPILGSPVYSSSPVPSGSPYPNPSFLGTPSHGIQPPAMSTPVCALGNPATQATNMSCVTGPEIVYSGKHNGICIYFSRIMGNIWDASLVVERIFKSGNREITAIESSVPCQLLESVLQELKGLQEFLDRNSQFAGGPLGNPNTTAKVQQRLIGFMRPENGNPQQMQQELQRKFHEAQLSEKISLQAIQQLVRKSYQALALWKLLCEHQFTIIVAELQKELQEQLKITTFKDLVIRDKELTGALIASLINCYIRDNAAVDGISLHLQDICPLLYSTDDAICSKANELLQRSRQVQNKTEKERMLRESLKEYQKISNQVDLSNVCAQYRQVRFYEGVVELSLTAAEKKDPQGLGLHFYKHGEPEEDIVGLQAFQERLNSYKCITDTLQELVNQSKAAPQSPSVPKKPGPPVLSSDPNMLSNEEAGHHFEQMLKLSQRSKDELFSIALYNWLIQVDLADKLLQVASPFLEPHLVRMAKVDQNRVRYMDLLWRYYEKNRSFSNAARVLSRLADMHSTEISLQQRLEYIARAILSAKSSTAISSIAADGEFLHELEEKMEVARIQLQIQETLQRQYSHHSSVQDAVSQLDSELMDITKLYGEFADPFKLAECKLAIIHCAGYSDPILVQTLWQDIIEKELSDSVTLSSSDRMHALSLKIVLLGKIYAGTPRFFPLDFIVQFLEQQVCTLNWDVGFVIQTMNEIGVPLPRLLEVYDQLFKSRDPFWNRMKKPLHLLDCIHVLLIRYVENPSQVLNCERRRFTNLCLDAVCGYLVELQSMSSSVAVQAITGNFKSLQAKLERLH
binding (NPHP4-mCh-mito): binds | binding (NPHP2-mCh-mito): binds
